Data as given in publication PMC4336329 (PLoS ONE, 2015).
Among all 310,000 compounds or so, about 2,200 (0.71%) showed an effect of 50% or more. The effect is printed as a negative number. This is one part of the list.

Target: human ether-à-go-go-related gene (hERG) potassium channel (human, UniProt Q12809)
Assay: primary screen, population patch clamp on CHO cells stably expressing hERG

Sequence of human ether-à-go-go-related gene (hERG) potassium channel (Q12809 whole entry, looked up): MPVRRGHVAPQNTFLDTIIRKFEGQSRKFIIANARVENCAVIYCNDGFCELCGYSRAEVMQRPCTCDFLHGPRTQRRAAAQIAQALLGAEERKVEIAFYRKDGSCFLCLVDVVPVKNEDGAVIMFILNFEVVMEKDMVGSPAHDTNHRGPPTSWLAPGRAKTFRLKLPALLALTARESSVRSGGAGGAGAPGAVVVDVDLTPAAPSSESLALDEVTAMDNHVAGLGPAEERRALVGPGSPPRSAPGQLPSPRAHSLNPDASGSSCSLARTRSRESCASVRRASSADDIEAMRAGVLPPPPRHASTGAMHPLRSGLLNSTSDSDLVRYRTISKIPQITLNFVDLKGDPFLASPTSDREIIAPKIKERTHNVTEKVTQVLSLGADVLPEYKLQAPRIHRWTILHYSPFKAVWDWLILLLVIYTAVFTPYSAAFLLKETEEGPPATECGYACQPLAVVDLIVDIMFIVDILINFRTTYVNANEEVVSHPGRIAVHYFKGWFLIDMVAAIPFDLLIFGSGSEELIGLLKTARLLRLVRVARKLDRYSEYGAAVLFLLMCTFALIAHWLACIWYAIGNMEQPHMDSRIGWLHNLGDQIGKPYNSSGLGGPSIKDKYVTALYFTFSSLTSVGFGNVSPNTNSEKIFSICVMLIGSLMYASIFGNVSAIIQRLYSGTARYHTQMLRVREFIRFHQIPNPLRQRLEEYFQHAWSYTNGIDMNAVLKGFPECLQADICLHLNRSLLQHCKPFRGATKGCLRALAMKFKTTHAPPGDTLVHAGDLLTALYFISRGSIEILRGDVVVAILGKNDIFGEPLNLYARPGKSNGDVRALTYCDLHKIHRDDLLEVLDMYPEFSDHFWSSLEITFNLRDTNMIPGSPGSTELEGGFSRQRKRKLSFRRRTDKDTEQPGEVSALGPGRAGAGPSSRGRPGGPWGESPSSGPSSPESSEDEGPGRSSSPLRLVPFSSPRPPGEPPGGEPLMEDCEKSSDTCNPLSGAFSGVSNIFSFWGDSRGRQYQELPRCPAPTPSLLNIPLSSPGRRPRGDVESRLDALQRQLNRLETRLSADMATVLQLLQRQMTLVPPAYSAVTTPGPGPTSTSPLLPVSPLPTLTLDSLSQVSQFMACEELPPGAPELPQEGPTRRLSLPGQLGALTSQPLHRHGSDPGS

SMILES | hERG current change (%, negative = inhibition) at 1uM
CC1(C)CC(=O)C(=Cc2cn(-c3ccccc3)nc2-c2ccc(Cl)cc2)C(=O)C1 | 14.9%
N#CC1=C(SCC(=O)NCc2ccccc2)NC(=O)CC1c1ccco1 (centres unmarked) | 15%
C[C@H](NC(=O)Nc1ccc2c(c1)OCCO2)C(=O)O | 20.4%
COCCCNC(=S)N(CCO)Cc1cc2cc3c(cc2[nH]c1=O)OCCO3 | 14.1%
COc1cc(C2NC(=O)NC(c3ccccc3)=C2C(C)=O)ccc1OCC(=O)O (centres unmarked) | 8.84%
CCOC(=O)/C(N=Nc1cc(C(=O)O)cc(C(=O)O)c1)=C(\O)CCl | 3.38%
NS(=O)(=O)c1ccc(CCNC(=S)NC2CCCC2)cc1 | 6.65%
COc1cccc(/C=N/NC(=O)c2cccc3ccccc23)c1OC | 14.3%
COc1cc(Cn2c(-c3nonc3N)nc3ccccc32)ccc1C | 1.87%
O=C(NCc1nc(-c2ccc(C(F)(F)F)cc2)no1)Nc1cc(Cl)cc(Cl)c1 | 11.7%
CCOC(=O)c1c(C)c(-c2ccccc2)n(CC(=O)NCCC(C)C)c1C | 10.5%
Nn1c(SCC(=O)Nc2ccc(OC(F)F)cc2)nnc(Cc2ccccc2)c1=O | -15.8%
COc1ccc(C(=O)N2CCN(C3CCCCC3)CC2)cc1OC.O=C(O)C(=O)O | -74.2%
Cc1ccc(C(=O)NC(C(=O)NC2CCCC2)c2ccccc2)cc1 (centres unmarked) | 14.7%
Cc1cc(C)c(NC(=O)C2CCCCN2C)c(C)c1.Cl (centres unmarked) | 5.4%
O=C(NN1C(=O)c2ccccc2NC1c1cccnc1)c1ccc([N+](=O)[O-])cc1 (centres unmarked) | -4.83%
CCC(C)c1ccc(NC(=S)N2CCN(C(=O)C3CCCO3)CC2)cc1 (centres unmarked) | -12.1%
CCCC(c1nnnn1C(C)(C)C)N1CCN(Cc2ccccc2OC)CC1.Cl (centres unmarked) | 5.97%
COc1ccc(CCNC(=O)C(C)OC(=O)c2cccs2)cc1OC (centres unmarked) | -3.5%
O=C(Cc1c(Cl)cccc1Cl)OCC(=O)N1CCN(C(=O)c2ccco2)CC1 | 4.74%
Cc1cc(C(=O)NCc2ccccc2)no1 | 10.3%
O=C(CCCC(=O)N1CCCc2ccccc21)N1CCCc2ccccc21 | -4.61%
Cc1sc(NC(=O)C2CSC3(C)CCC(=O)N23)nc1-c1ccc(F)cc1 (centres unmarked) | 0.383%

SMILES | hERG current change (%, negative = inhibition) at 1uM
Cc1nc(SCC(=O)N2CCCCC2)c2c(C)c(C)sc2n1 | 7%
CC(=O)c1cccc(NC(=O)C2CCN(S(=O)(=O)c3cccs3)CC2)c1 | 13.2%
COc1ccccc1C(=O)NC(CCSC)C(=O)NCc1ccncc1 (centres unmarked) | 9.86%
COc1ccc(CN2CCN(C(=O)CCC(=O)Nc3nnc(C(F)(F)F)s3)CC2)cc1F | 23.8%
CN(CC(=O)Nc1ccc(F)cc1)C(=O)CSc1nncs1 | 15.7%
CCCCN(CC)C(=O)CSc1nc2n[nH]c(C)c2c(=N)n1-c1cccc(C)c1 | 14.5%
CCCN1/C(=C2/SC(=S)N(CC)C2=O)C=Cc2ccccc21 | 8.01%
CN1CCN(C(=O)CCCOc2cc(=O)n(C)c3ccccc23)CC1 | -0.0929%
Cc1ccc(C23OC(=O)C(C)(C)C2OC(=O)C3(C)C)cc1 (centres unmarked) | 4.77%
Cc1ccc(N(CC(=O)NCC2CCCO2)S(=O)(=O)c2ccccc2)c(C)c1 (centres unmarked) | 3.21%
Cc1cc(C)n(CC(O)Cn2ccc3ccccc32)n1 (centres unmarked) | -3.79%
C[C@@H](NC(=O)[C@@H]1Cc2ccccc2CN1)C(=O)NCc1ccco1 | 13.3%
CC(C)CC(=O)Nc1cccc(-c2csc(-c3ccccc3)n2)c1 | 11.9%
COc1ccc(NC(=O)CSc2n[nH]c(-c3ccncc3)n2)c([N+](=O)[O-])c1 | 15.6%
COc1cc(C)c(CNC2CCCCC2)cc1C | 2.45%
CCSc1nc(CC)c2c(c1C#N)CCCC2 | 5.08%
Cc1cccn2c(=O)c3cc(C(=O)N4CCCC(C)C4)sc3nc12 (centres unmarked) | 11.6%
NS(=O)(=O)c1ccc(NC(=O)COC(=O)CCc2nc3ccccc3c(=O)[nH]2)cc1 | 19.1%
Cc1ccc(N2CC(C(=O)Nc3nnc(SCC(N)=O)s3)CC2=O)cc1C (centres unmarked) | 14%
O=C(/C=C/c1ccco1)NC(=S)Nc1ccc(Cl)cn1 | 8.56%
CCOC(=O)C1CCCN(C2=C(NS(=O)(=O)c3ccc(Br)cc3)C(=O)c3ccccc3C2=O)C1 (centres unmarked) | 7.43%
CN(C(=O)CCN1C(=O)S/C(=C\c2ccccc2)C1=O)C1CCS(=O)(=O)C1 (centres unmarked) | 4.62%
CCC/C(=N\NC(=O)C1CC1)c1ccc(Br)cc1 | 10.7%

SMILES | hERG current change (%, negative = inhibition) at 1uM
C1CCC(C23CC4CC(CC(C4)C2)C3)NC1 (centres unmarked) | 13.6%
CCN(CC)C(CNC(=O)CSc1nnnn1-c1ccc(C)c(C)c1)c1ccco1 (centres unmarked) | -0.627%
CCOC(=O)CC1C(=O)NCCN1C(=O)c1c(Cl)cccc1Cl (centres unmarked) | 14.3%
CC(=O)NCc1ccc(S(=O)(=O)NC(C)CCc2ccccc2)cc1 (centres unmarked) | 12.1%
CC(C)(C)C1=NN(C(=O)c2ccccc2)C(O)(C(C)(C)C)C1 (centres unmarked) | -11.8%
O=C(CCCC(=O)N(CC(=O)NC1CCCCC1)c1ccc(F)cc1)Nc1ccccn1 | 12.3%
O=C1[C@H]2[C@@H](c3ccc(F)cc3)N3C(=O)N(c4ccccc4)C(=O)[C@@]3(Cc3ccc(Cl)cc3)[C@H]2C(=O)N1C1CCCCC1 | 8.73%
COc1ccc(NCc2nnc(SCc3ccc(Cl)cc3)n2-c2ccccc2)cc1 | 13.9%
CC(Oc1ccccc1Cl)C(=O)N(Cc1ccco1)C1CCS(=O)(=O)C1 (centres unmarked) | 11.1%
C=C(C)C(=O)Nc1cccc(C2=NOC3(C2)C[C@@H](C(N)=O)N(C(=O)/C=C/CC)C3)c1 (some centres unmarked) | 5.17%
CC(=O)NC1C(=O)N=C(SCC(=O)Nc2sc3c(c2C#N)CCCCCC3)NC1=O (centres unmarked) | 10.7%
Cc1cc(C(=O)Nc2c(C)nn(Cc3ccccc3Cl)c2C)no1 | -1.9%
O=C(CNC1CCCCC1)N1CCc2ccccc2C1 | -0.403%
COc1ccc2c(c1)C(=O)CCC2c1ccccc1 (centres unmarked) | -0.189%
COc1ccc(NC(=S)NNC(=S)Nc2cccc(C(F)(F)F)c2)cc1 | 7.6%
Cc1sc2nc(-c3ccncc3)[nH]c(=O)c2c1-c1ccccc1 | 4.38%
Cc1ccc(NC(=O)C2CCCNC2=O)nc1 (centres unmarked) | 5.14%
Cc1c(NC(=O)C23CC4CC(CC(C4)C2)C3)c(=O)n(-c2ccccc2)n1C | 19.2%
CCCCC(=O)Nc1ccc(C(=O)N(CC)c2ccccc2C)cc1 | 14.6%
CCOc1ccc(CCNC(=O)CN2C(=O)NC3(CCCCC3C)C2=O)cc1OCC (centres unmarked) | 14.6%
Cc1nnc(-c2cnn(C)c2N)n1CCCN1CCOCC1 | 5.12%
COc1cccc(C(c2c(C)[nH]n(-c3ccccc3)c2=O)c2c(C)[nH]n(-c3ccccc3)c2=O)c1OC | 7.35%
COc1ccccc1C(=O)NCc1ccncc1 | 11.7%

SMILES | hERG current change (%, negative = inhibition) at 1uM
CCCc1cc(=O)oc2c3c(c(Cl)cc12)OCN(CCCO)C3 | 16.3%
COc1ccc(NC(=O)Cn2nnc(C(=O)NCc3ccccc3)c2N)cc1Cl | 0.794%
CCN(CC)S(=O)(=O)c1ccc(NC(=O)C(C)N(c2ccccc2)S(C)(=O)=O)cc1 (centres unmarked) | 10.2%
CCCC(=O)NC(=S)Nc1ccc(NC(=O)C(C)C)c(OC)c1 | -8.37%
COc1ccc(C(C)(C)C)cc1NC(=O)C1CC=CCC1C(=O)O (centres unmarked) | 11.5%
CCOC(=O)CN1C(=O)N[C@@H](c2ccc(Br)cc2)C(C(=O)OC)=C1C | 4.15%
CCS(=O)(=O)N1CCC(N2CCC(C)CC2)CC1.O=C(O)C(=O)O | 4.36%
COC(=O)Nc1[nH]ncc1[N+](=O)[O-] | 15.7%
CCCCNc1c2c3c(cccc3n(C)c1=O)C(=O)c1ccccc1-2 | -3.58%
CCOc1ccc(CN2CCC(n3nccc3NC(=O)c3ccccc3OC)CC2)cc1 | -89.4%
COc1ccccc1C(=O)Nc1c[nH]c(=O)[nH]c1=O | 12.1%
Cc1nc(-c2ccc(S(=O)(=O)Nc3ccc(Br)cc3Cl)s2)cs1 | 10.4%
CN1CCC(N(C)C(=O)c2sc3cc(F)ccc3c2Cl)CC1 | -13.8%
Cc1c(C=O)c2ccccc2n1CC(=O)NCc1ccc2c(c1)OCO2 | 20.1%
CCN(C(=O)CSc1cc(C)c2ccccc2n1)C1CCS(=O)(=O)C1 (centres unmarked) | 3.62%
c1coc(-c2ccnc3nc(-n4cccc4)nn23)c1 | -3.11%
CCOC(=O)c1c(NC(=O)CSc2nc3nc(C)cc(C)n3n2)sc(CC)c1C | 14.4%
S=C(NCCc1ccc(Cl)cc1)NC1CCCC1 | 16.1%
Cc1ccc(C(=O)Cn2nnc3ccccc32)cc1 | 14%
O=C1C(Cl)=C(NCC2CCCO2)C(=O)N1c1cccc(Cl)c1Cl (centres unmarked) | 6.78%
